Laboratory results published in the supplement of paper PMC8007513.
Counter-ions that a name gives are not always drawn. ± gives the standard error. Hit rate of the full screen: of about 1,300 compounds, about 130 (10%) showed an effect of 50% or more. This is a selection; strong and weak results do not stand in their true shares.

Tested on: Trichoderma virens ATCC 9645
Test: growth yield (OD600) with compound + IPBC relative to untreated control; higher = less growth inhibition
Conditions: compound concentration: 100 uM, IPBC concentration: 200 ng/ml
Outline: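 Spores of Trichoderma virens ATCC 9645, taken from potato dextrose agar plates grown for 7 days, were suspended at 15,000 spores ml^−1 in potato dextrose broth. In 96-well plates, 100 μl aliquots held library compounds at 100 μM final, either alone or together with a biocide at 200 ng ml^−1, and were grown at 30 °C. A BioTek EL800 read OD600 at 40 h and 72 h. Growth values are given relative to the control lacking both agents and are means of duplicate screens.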

SMILES	growth yield (40 h) [%]	growth yield (72 h) [%]
C1CCC(C(CC2CCCCN2)C2CCCCC2)CC1 (stereo not drawn) [Perhexiline maleate] + CCCCNC(=O)OCC#CI [3-iodo-2-propynyl butylcarbamate (IPBC)]	40.981 ± 7.1e-15	85.27 ± 0.32
CCc1nc(N)nc(N)c1-c1ccc(Cl)cc1 [Pyrimethamine] + CCCCNC(=O)OCC#CI [3-iodo-2-propynyl butylcarbamate (IPBC)]	87.84 ± 0.48	95.4 ± 2.3
CC(=O)[C@@]1(O)CC[C@H]2[C@@H]3C[C@H](C)C4=CC(=O)C=C[C@]4(C)[C@@]3(F)[C@@H](O)C[C@@]21C [Fluorometholone] + CCCCNC(=O)OCC#CI [3-iodo-2-propynyl butylcarbamate (IPBC)]	91.3 ± 9.1	88.7 ± 5
COc1cc(C(=O)NCc2ccc(OCCN(C)C)cc2)cc(OC)c1OC [Trimethobenzamide hydrochloride] + CCCCNC(=O)OCC#CI [3-iodo-2-propynyl butylcarbamate (IPBC)]	90.2 ± 1.3	91.3 ± 2.8
CCOc1nc2cccc(C(=O)OCc3oc(=O)oc3C)c2n1Cc1ccc(-c2ccccc2-c2noc(=O)[nH]2)cc1 [Azilsartan kamedoxomil] + CCCCNC(=O)OCC#CI [3-iodo-2-propynyl butylcarbamate (IPBC)]	110 ± 5.1	105 ± 2.7
Cc1ccc(NC(=O)c2ccc(CN3CCN(C)CC3)cc2)cc1Nc1nccc(-c2cccnc2)n1 [Imatinib] + CCCCNC(=O)OCC#CI [3-iodo-2-propynyl butylcarbamate (IPBC)]	118 ± 7.6	115 ± 2.6
CCN[C@@H](C)Cc1cccc(C(F)(F)F)c1 [Dexfenfluramine hydrochloride] + CCCCNC(=O)OCC#CI [3-iodo-2-propynyl butylcarbamate (IPBC)]	87 ± 1.6	91.2 ± 1.5
CCOC(=O)O[C@]1(C(=O)OCCl)CC[C@H]2[C@@H]3CCC4=CC(=O)C=C[C@]4(C)[C@H]3[C@@H](O)C[C@@]21C [Loteprednol etabonate] + CCCCNC(=O)OCC#CI [3-iodo-2-propynyl butylcarbamate (IPBC)]	98.64 ± 0.16	98.1 ± 2
Clc1ccc(C(Cn2ccnc2)OCc2ccsc2Cl)c(Cl)c1 (stereo not drawn) [Tioconazole] + CCCCNC(=O)OCC#CI [3-iodo-2-propynyl butylcarbamate (IPBC)]	3.65 ± 0.16	2.52
CCCC1C(=O)N2C(N(C)C)=Nc3ccc(C)cc3N2C1=O (stereo not drawn) [Azapropazone] + CCCCNC(=O)OCC#CI [3-iodo-2-propynyl butylcarbamate (IPBC)]	85.8 ± 9.5	91.8 ± 3.5
C[C@](N)(Cc1ccc(O)c(O)c1)C(=O)O [Methyldopa (L,-)] + CCCCNC(=O)OCC#CI [3-iodo-2-propynyl butylcarbamate (IPBC)]	91.5 ± 2.5	96.4 ± 2.4
c1cnc(N2CCN(Cc3ccc4c(c3)OCO4)CC2)nc1 [Piribedil hydrochloride] + CCCCNC(=O)OCC#CI [3-iodo-2-propynyl butylcarbamate (IPBC)]	116 ± 13	108 ± 9.8
C[C@H]1c2cccc(O)c2C(=O)C2=C(O)[C@]3(O)C(=O)C(C(N)=O)=C(O)[C@@H](N(C)C)[C@@H]3[C@@H](O)[C@@H]21 [Doxycycline hydrochloride] + CCCCNC(=O)OCC#CI [3-iodo-2-propynyl butylcarbamate (IPBC)]	77.2 ± 0.64	82.3 ± 1.6
Cc1c(-c2ccccc2)oc2c(C(=O)OCCN3CCCCC3)cccc2c1=O [Flavoxate hydrochloride] + CCCCNC(=O)OCC#CI [3-iodo-2-propynyl butylcarbamate (IPBC)]	96.1 ± 9.4	106 ± 1.9
Cc1onc(-c2ccccc2Cl)c1C(=O)N[C@@H]1C(=O)N2[C@@H]1SC(C)(C)[C@@H]2C(=O)O [Cloxacillin sodium salt] + CCCCNC(=O)OCC#CI [3-iodo-2-propynyl butylcarbamate (IPBC)]	85.46 ± 0.32	94.5 ± 1.4
N[C@@H](C(=O)N[C@@H]1C(=O)N2C(C(=O)O)=C(Cl)CC[C@H]12)c1ccccc1 [Loracarbef] + CCCCNC(=O)OCC#CI [3-iodo-2-propynyl butylcarbamate (IPBC)]	84.34 ± 0.48	89 ± 0.94
C#Cc1cccc(Nc2ncnc3cc(OCCOC)c(OCCOC)cc23)c1 [Erlotinib] + CCCCNC(=O)OCC#CI [3-iodo-2-propynyl butylcarbamate (IPBC)]	98.2 ± 11	99.3 ± 3
CC(C)Nc1cccnc1N1CCN(C(=O)c2cc3cc(NS(C)(=O)=O)ccc3[nH]2)CC1 [Delavirdine] + CCCCNC(=O)OCC#CI [3-iodo-2-propynyl butylcarbamate (IPBC)]	95.5 ± 8.4	97.7 ± 3.8
NS(=O)(=O)c1cc2c(cc1Cl)NC(C(Cl)Cl)NS2(=O)=O (stereo not drawn) [Trichlormethiazide] + CCCCNC(=O)OCC#CI [3-iodo-2-propynyl butylcarbamate (IPBC)]	97.5 ± 16	97.3 ± 12
COc1ccccc1Oc1c(NS(=O)(=O)c2ccc(C(C)(C)C)cc2)nc(-c2ncccn2)nc1OCCO [Bosentan] + CCCCNC(=O)OCC#CI [3-iodo-2-propynyl butylcarbamate (IPBC)]	117 ± 2.4	114 ± 5.8
Nc1ccccc1S(N)(=O)=O [2-Aminobenzenesulfonamide] + CCCCNC(=O)OCC#CI [3-iodo-2-propynyl butylcarbamate (IPBC)]	88.79 ± 0.48	92.9 ± 2.7
CN(C)CCC=C1c2ccccc2COc2ccccc21 [Doxepin hydrochloride] + CCCCNC(=O)OCC#CI [3-iodo-2-propynyl butylcarbamate (IPBC)]	73.7 ± 2.2	92.4 ± 0.94
CCC[C@@H]1C[C@@H](C(=O)N[C@@H]([C@H]2O[C@H](SC)[C@H](O)[C@@H](O)[C@H]2O)[C@H](C)Cl)N(C)C1 [Clindamycin hydrochloride] + CCCCNC(=O)OCC#CI [3-iodo-2-propynyl butylcarbamate (IPBC)]	90.7 ± 8.4	96.2 ± 5.3
O=C(N[C@H](CO)[C@H](O)c1ccc([N+](=O)[O-])cc1)C(Cl)Cl [Chloramphenicol] + CCCCNC(=O)OCC#CI [3-iodo-2-propynyl butylcarbamate (IPBC)]	92.6 ± 6.8	92.7 ± 6.5
